Values quoted from earlier work as cited in patent US10646600B2, “HER2 polypeptides useful for imaging and monitoring tumors and cancers” (GE HEALTHCARE LIMITED, priority 2013, dated 2020).

Molecular target: T1, human HER2-ECD-Fc (Homo sapiens, UniProt P04626)
T1 construct: Fc (C)
Conditions: reference (27); read-out: binding to human HER2-ECD-Fc; cited from earlier work

Substance: ZHER2:2891: parent Affibody, optimized scaffold with 11 amino acid substitutions in the nonbinding surface (AEAKYAKEMRNAYWEIALLPNLTNQQKRAFIRKLYDDPSQSSELLSEAKKLNDSQAPKVD)
- Kd: 0.076 nM
